Data as given in publication PMC4336329 (PLoS ONE, 2015).
The whole screen tested about 310,000 compounds, of which about 2,200 (0.71%) showed an effect of 50% or more. Effects have a minus sign here. This is one part of the list.

target: human ether-à-go-go-related gene (hERG) potassium channel (human, UniProt Q12809); assay: primary screen, population patch clamp on CHO cells stably expressing hERG
Sequence (Q12809 whole entry, looked up): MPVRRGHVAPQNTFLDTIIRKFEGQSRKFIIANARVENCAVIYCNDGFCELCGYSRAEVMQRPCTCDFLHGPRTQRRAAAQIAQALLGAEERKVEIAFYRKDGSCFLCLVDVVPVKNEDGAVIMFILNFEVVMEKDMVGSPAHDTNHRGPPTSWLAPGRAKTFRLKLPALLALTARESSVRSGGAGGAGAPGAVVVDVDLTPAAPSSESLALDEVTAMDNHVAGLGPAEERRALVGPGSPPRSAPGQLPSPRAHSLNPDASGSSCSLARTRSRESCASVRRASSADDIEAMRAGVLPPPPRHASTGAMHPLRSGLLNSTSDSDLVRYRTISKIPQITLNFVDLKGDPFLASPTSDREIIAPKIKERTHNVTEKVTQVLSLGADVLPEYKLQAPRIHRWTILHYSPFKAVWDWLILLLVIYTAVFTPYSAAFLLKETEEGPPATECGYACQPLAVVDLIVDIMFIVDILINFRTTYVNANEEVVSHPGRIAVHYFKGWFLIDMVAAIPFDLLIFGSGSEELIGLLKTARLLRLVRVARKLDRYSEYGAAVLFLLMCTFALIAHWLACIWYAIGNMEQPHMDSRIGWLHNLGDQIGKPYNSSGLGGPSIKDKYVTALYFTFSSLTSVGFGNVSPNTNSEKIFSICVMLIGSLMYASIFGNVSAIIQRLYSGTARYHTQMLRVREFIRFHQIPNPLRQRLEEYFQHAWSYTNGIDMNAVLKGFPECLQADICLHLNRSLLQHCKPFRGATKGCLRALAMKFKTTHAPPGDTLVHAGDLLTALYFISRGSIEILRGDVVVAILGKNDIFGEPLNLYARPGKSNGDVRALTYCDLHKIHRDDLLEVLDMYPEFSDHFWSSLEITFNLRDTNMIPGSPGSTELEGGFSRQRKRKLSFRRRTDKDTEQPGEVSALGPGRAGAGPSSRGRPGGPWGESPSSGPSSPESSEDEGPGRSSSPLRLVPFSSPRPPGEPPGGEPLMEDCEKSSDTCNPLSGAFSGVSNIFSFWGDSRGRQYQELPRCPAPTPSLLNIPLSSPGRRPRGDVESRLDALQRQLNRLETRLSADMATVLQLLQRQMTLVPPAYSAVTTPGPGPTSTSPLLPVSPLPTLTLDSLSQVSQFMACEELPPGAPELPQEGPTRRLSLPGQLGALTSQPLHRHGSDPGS

Going from CCC1(CC)NC(=O)N(CC(=O)OC(C)C(=O)Nc2ccc(NC(C)=O)cc2)C1=O (stereo not drawn) to CC(=O)Nc1ccc(NC(=O)C(C)OC(=O)c2ccccc2Sc2ccccc2C#N)cc1 (stereo not drawn), the “hERG current change (%, negative = inhibition) at 1uM” value falls from 4.44% to -7.16%.

Going from O=C(CN1CCN(c2nc(-c3ccc(F)cc3)cs2)CC1)Nc1ccc2c(c1)OCO2 to O=C(CSc1n[nH]c(=O)n1-c1ccc2c(c1)OCCO2)Nc1ccccc1, the “hERG current change (%, negative = inhibition) at 1uM” value rises from 2.97% to 4.53%.

First: CC(=O)c1ccc(OCC(O)CN2CCN(Cc3ccccc3)CC2)cc1.Cl (stereo not drawn)
Second: COc1ccc(N2CCN(C(=O)COC(=O)CCOc3ccccc3C)CC2)cc1
The “hERG current change (%, negative = inhibition) at 1uM” value of the first is higher: -21% for the first, -25.7% for the second.

First: C=CCOc1ccc(C2/C(=C(\O)c3ccc(F)cc3)C(=O)C(=O)N2CCCN(C)C)cc1 (stereo not drawn)
Second: CCC(=O)c1ccc2c(c1)N(CCCN(C)C)c1ccccc1S2.Cl
The “hERG current change (%, negative = inhibition) at 1uM” value of the first is higher: 23.3% for the first, -1% for the second.

Compared with CCOC(=O)N1CCN(C(=O)/C(=C/c2ccc(F)cc2)NC(=O)c2ccccc2)CC1, CN1CCN(S(=O)(=O)c2cccc(C(=O)Oc3ccccc3Cl)c2)CC1 is higher in “hERG current change (%, negative = inhibition) at 1uM” value: -10.2% for the first, 0.38% for the second.

Compared with O=C(NNC(=O)C1CCCO1)c1ccc(F)cc1 (stereo not drawn), COc1ccc(C(=O)Nc2ccc(N3CCOCC3)cc2)cc1S(=O)(=O)NC1CCCC1 is lower in “hERG current change (%, negative = inhibition) at 1uM” value: 17.4% for the first, 6.31% for the second.

Compared with Cc1cc(C)c2c(CN3CCCCC3C)cc(=O)oc2c1.Cl (stereo not drawn), CCN1CCC2(CCN(C(=O)c3cc(COc4cc(C)ccc4C)on3)C2)C1 (stereo not drawn) is lower in “hERG current change (%, negative = inhibition) at 1uM” value: 12.5% for the first, 5.57% for the second.

Going from CCN(CC)C(=O)CSc1nnc(-c2ccc(F)cc2)n1N to CCOC(=O)CSc1nc2c(c(=O)n1-c1ccc(OCC)cc1)SCC2, the “hERG current change (%, negative = inhibition) at 1uM” value rises from 7.96% to 16.5%.

Going from Cc1ccc(C(=O)NCc2ccccn2)cc1S(=O)(=O)N1CCOCC1 to CCOc1ccc(S(=O)(=O)N2CCCC(C(=O)NCc3ccccn3)C2)cc1C (stereo not drawn), the “hERG current change (%, negative = inhibition) at 1uM” value falls from 16% to 4.95%.

Going from Cc1ccccc1N(CC(=O)NCCc1ccccc1)C(=O)CCC(=O)Nc1ccccn1 to O=C(CN(c1ccccc1)S(=O)(=O)c1ccccc1[N+](=O)[O-])Nc1cccnc1, the “hERG current change (%, negative = inhibition) at 1uM” value falls from 13.2% to 3.34%.

Compared with CCOC(=O)Cn1c(S(=O)(=O)Cc2ccccc2)nc2ccccc21, CCn1c(NC(=O)Nc2ccccc2OC)nc2ccccc21 is lower in “hERG current change (%, negative = inhibition) at 1uM” value: 3.66% for the first, -6.96% for the second.

First: O=C(O)c1cccc(N2C(=O)c3ccc4c5c(ccc(c35)C2=O)C(=O)N(c2cccc(C(=O)O)c2)C4=O)c1
Second: O=c1ccc(-c2ccc([N+](=O)[O-])cc2)nn1-c1ccccc1
The “hERG current change (%, negative = inhibition) at 1uM” value of the first is lower: 4.56% for the first, 5.04% for the second.

Compared with O=C(Nc1nc(-c2ccccc2)cs1)c1ccc(N2CCOCC2)c([N+](=O)[O-])c1, O=C(Nc1ccc(-c2cscn2)cc1)C1CCCN(Cc2ccccc2)C1 (stereo not drawn) is lower in “hERG current change (%, negative = inhibition) at 1uM” value: 31.6% for the first, 7.14% for the second.

Compared with COc1cccc(/C=N/n2cnnc2)c1OCc1ccccc1, CCOc1ccc(-c2nn3c(-c4ccccc4)nnc3s2)cc1 is higher in “hERG current change (%, negative = inhibition) at 1uM” value: -5.96% for the first, -3.81% for the second.

Compared with O=C1c2cc(F)ccc2-n2c1nc1ccccc1c2=O, Cc1ccc2nc(SC(C(=O)Nc3ccc(F)cc3)c3ccccc3)[nH]c2c1 (stereo not drawn) is higher in “hERG current change (%, negative = inhibition) at 1uM” value: 8.96% for the first, 11% for the second.

Going from Fc1ccc(/C=N/NC(=S)Nc2cccnc2)cc1 to COc1cc(/C=N/Nc2ccc(Cl)c(C(=O)O)c2)ccc1OC(=O)c1ccco1, the “hERG current change (%, negative = inhibition) at 1uM” value falls from 13.4% to 12%.

Compared with CC(C)Cc1nc2oc3c(NCC(C)O)ncnc3c2c2c1CCCC2 (stereo not drawn), O=C(Nc1nc2c(s1)CCCC2)c1ccc2ncsc2c1 is higher in “hERG current change (%, negative = inhibition) at 1uM” value: 4.92% for the first, 10.6% for the second.

Compared with Cc1cc(=O)[nH]c(N/N=C/c2ccc(Br)s2)n1, Cc1cccc2sc(NC(=O)[C@H](C)N3C(=O)C4CC=CCC4C3=O)nc12 (stereo partly drawn) is higher in “hERG current change (%, negative = inhibition) at 1uM” value: -0.312% for the first, 0.286% for the second.

First: O=C(CC1C(=O)NCCN1CC1CCCCC1)NCc1ccccc1Cl (stereo not drawn)
Second: CCn1c(SCC(=O)NC2CCCC2)nnc1-c1ccncc1
The “hERG current change (%, negative = inhibition) at 1uM” value of the first is lower: 9.89% for the first, 13.6% for the second.

First: Cc1ccc(-c2nnn(CC(=O)Nc3cccc4cccnc34)n2)o1
Second: Cc1ccc(-n2c(=O)[nH]c3c(C(N)=O)nc(-c4ccc(C)o4)nc32)cc1
The “hERG current change (%, negative = inhibition) at 1uM” value of the first is lower: -5.28% for the first, 9.41% for the second.

First: COc1ccc(OCCN2CCN(C3CC(=O)N(CCC(C)C)C3=O)CC2)cc1 (stereo not drawn)
Second: COc1ccc(OCC(=O)Nc2nc3ccc(NC(C)=O)cc3s2)cc1
The “hERG current change (%, negative = inhibition) at 1uM” value of the first is lower: -22.5% for the first, 11.6% for the second.

Compared with CCC1c2ccc(C)n2CCN1C(=O)Nc1ccccc1OC (stereo not drawn), Cc1ccc(S(=O)(=O)NCc2ccccc2)cc1C(=O)N1CC(C)CC(C)C1 (stereo not drawn) is lower in “hERG current change (%, negative = inhibition) at 1uM” value: 10.6% for the first, -2.4% for the second.

First: C/C=C/c1ccc(OCCOc2cccc3cccnc23)c(OC)c1
Second: COc1ccc(NC(=O)CN(c2ccc(Cl)cc2)S(C)(=O)=O)cc1OC
The “hERG current change (%, negative = inhibition) at 1uM” value of the first is higher: 22.9% for the first, 8.19% for the second.

Going from C[C@@]12C(=O)N(c3ccc(F)cc3)C(=O)N1[C@@H]1c3ccccc3OC[C@@H]1[C@H]2c1ccccc1 to Cc1c(Cl)ccc2c1NC(=O)[C@]21N[C@@H](Cc2ccccc2)[C@H]2C(=O)N(c3ccc(F)cc3)C(=O)[C@H]21, the “hERG current change (%, negative = inhibition) at 1uM” value rises from 10.1% to 13.3%.

Compared with CN(Cc1nc2ccccc2n1C)c1ccccc1, CC(C)NC(=O)c1ccc(N(Cc2ccccc2)S(C)(=O)=O)cc1 is higher in “hERG current change (%, negative = inhibition) at 1uM” value: 12.3% for the first, 15.3% for the second.

First: COc1ccc(NC(=O)[C@@H]2[C@@H]3C(=O)N(C4CCCCC4)C(=O)[C@@H]3C3c4ccccc4C=CN32)cc1 (stereo partly drawn)
Second: COc1ccc(N(C)C(=O)c2oc(=O)c3ccccc3c2-c2ccccc2)c(OC)c1
The “hERG current change (%, negative = inhibition) at 1uM” value of the first is higher: 11.4% for the first, 7.8% for the second.

Compared with CCCCn1c(N)c(N(Cc2ccccc2OC)C(=O)CC2OC(=O)c3ccccc32)c(=O)[nH]c1=O (stereo not drawn), CC(C)CN(C(=O)COC(=O)/C=C/c1cccs1)c1c(N)n(Cc2ccccc2)c(=O)[nH]c1=O is lower in “hERG current change (%, negative = inhibition) at 1uM” value: 11.6% for the first, 10.1% for the second.

Going from Cc1ccc(C)c(S(=O)(=O)N2CCN(C(=O)C3CCN(c4ncnc5sc(C)c(C)c45)CC3)CC2)c1 to O=C(Cn1c(O)c(/C=C2\C=Nc3ccc(Br)cc32)sc1=O)N1CCCC1, the “hERG current change (%, negative = inhibition) at 1uM” value rises from -12% to 2.96%.

First: CCC1C(=O)c2ccccc2N(C)C1=O (stereo not drawn)
Second: CCOC(=O)N1CCC(Nc2nc3ccccc3n3cnnc23)CC1
The “hERG current change (%, negative = inhibition) at 1uM” value of the first is higher: 10.9% for the first, 7.71% for the second.

Going from COc1ccc(-c2nc(N)nc(C(F)(F)F)c2-c2cscn2)c(O)c1 to COc1ccc2[nH]c3ccc(OC)cc3c2c1, the “hERG current change (%, negative = inhibition) at 1uM” value rises from 8.15% to 10.5%.

First: C=CCOC(Cn1ccnc1)c1ccc(Cl)cc1Cl (stereo not drawn)
Second: CC(=O)N1N=C(c2ccc(Cl)cc2)OC1(C)C
The “hERG current change (%, negative = inhibition) at 1uM” value of the first is lower: -6.04% for the first, 11.4% for the second.

Going from OC1(c2ccccc2F)CC2CCC(C1)N2CCN1CCOCC1 (stereo not drawn) to COc1ccc(S(=O)(=O)N2CCOC2CNC(=O)C(=O)NCCCN2CCOCC2)cc1C (stereo not drawn), the “hERG current change (%, negative = inhibition) at 1uM” value falls from 13.3% to 11.7%.

Going from CCOC(=O)CCn1nnc(N)n1 to CN(Cc1ccccc1)C(=O)CCC1CCN(C(=O)CCC(F)(F)F)CC1, the “hERG current change (%, negative = inhibition) at 1uM” value falls from 18.5% to 15.6%.

First: O=C(CS(=O)(=O)c1ccc(Cl)cc1)Nc1nnc(-c2cccs2)o1
Second: O=C(Cc1ccc(Cl)cc1)Nc1ccccc1Sc1ccccc1
The “hERG current change (%, negative = inhibition) at 1uM” value of the first is higher: 23.9% for the first, 4.55% for the second.

Going from O=C1/C(=C/c2cccs2)SC(=S)N1N1CCOCC1 to O=C(Cc1ccc(S(=O)(=O)N2CCOCC2)s1)Nc1cc(C(F)(F)F)cc(C(F)(F)F)c1, the “hERG current change (%, negative = inhibition) at 1uM” value rises from 11.2% to 16.4%.

Going from Cc1noc(C)c1COc1ccc(C(=O)OCC(=O)Nc2ccc(S(N)(=O)=O)cc2)cc1 to CC(=O)Nc1ccc(Oc2cc(N)cc([N+](=O)[O-])c2)cc1, the “hERG current change (%, negative = inhibition) at 1uM” value rises from 6.58% to 9.97%.

Compared with CCn1nc(C)c(/C=C2\CCCC3=C2OC(N)=C(C#N)C3c2c(C)nn(CC)c2C)c1C (stereo not drawn), Cc1ccc2[nH]c3c(c2c1)CCN1C(=O)OC(C)(C)C31C (stereo not drawn) is lower in “hERG current change (%, negative = inhibition) at 1uM” value: 21.9% for the first, 11.4% for the second.

First: N#Cc1ccc(CSc2nnc(-c3cccs3)n2-c2ccccc2)cc1
Second: Cc1cccc(C)c1NC(=O)c1cnn(-c2ccccc2)c1C
The “hERG current change (%, negative = inhibition) at 1uM” value of the first is lower: -20.8% for the first, 11.1% for the second.

Going from COc1cc(CCC(=O)OCC(=O)Nc2ccccc2C#N)cc(OC)c1OC to Cc1ccc(C(=O)NC(C(=O)Nc2ccccc2)c2ccccc2)cc1 (stereo not drawn), the “hERG current change (%, negative = inhibition) at 1uM” value rises from 8.68% to 17.3%.

Going from CCCCCCCNC(=O)C1(CC2CC(c3cccc(Br)c3)=NO2)CCN(C(=O)CCCCCBr)CC1 (stereo not drawn) to C#CCOCCOCCOCCNc1nc(N2CCN(C(=O)CCCCCCCCCCNC(=O)Cn3cc(CCCCCN)nn3)CC2)nc(N2CCN(C(=O)CCCCCCCCCCNC(=O)Cn3cc(C[C@@H](C)O)nn3)CC2)n1, the “hERG current change (%, negative = inhibition) at 1uM” value rises from -72% to 11.4%.

Going from Cc1ccc(CNC(=O)C2=NNC(=O)CC2)cc1 to Cc1ccc(NC(=O)c2cc(S(=O)(=O)NCCC3=CCCCC3)ccc2F)cc1F, the “hERG current change (%, negative = inhibition) at 1uM” value rises from 4% to 18%.

CC1(C)CC(NC(=O)COc2ccc(Br)cc2Cl)CC(C)(C)N1 and c1ccc2c(-c3csc(-c4ccncc4)n3)c[nH]c2c1 are the same in “hERG current change (%, negative = inhibition) at 1uM” value: 10.8% for the first, 10.8% for the second.
